In the supplement of paper PMC3334620:
Whole data set: some 33,000 sequences, median “E-score (-0.5 to 0.5)” near -0.012, cut for the highest 2% near 0.27. The list shows a part of the results.

Target: T1, Vhr1 (UniProt P40522)
T1 sequence: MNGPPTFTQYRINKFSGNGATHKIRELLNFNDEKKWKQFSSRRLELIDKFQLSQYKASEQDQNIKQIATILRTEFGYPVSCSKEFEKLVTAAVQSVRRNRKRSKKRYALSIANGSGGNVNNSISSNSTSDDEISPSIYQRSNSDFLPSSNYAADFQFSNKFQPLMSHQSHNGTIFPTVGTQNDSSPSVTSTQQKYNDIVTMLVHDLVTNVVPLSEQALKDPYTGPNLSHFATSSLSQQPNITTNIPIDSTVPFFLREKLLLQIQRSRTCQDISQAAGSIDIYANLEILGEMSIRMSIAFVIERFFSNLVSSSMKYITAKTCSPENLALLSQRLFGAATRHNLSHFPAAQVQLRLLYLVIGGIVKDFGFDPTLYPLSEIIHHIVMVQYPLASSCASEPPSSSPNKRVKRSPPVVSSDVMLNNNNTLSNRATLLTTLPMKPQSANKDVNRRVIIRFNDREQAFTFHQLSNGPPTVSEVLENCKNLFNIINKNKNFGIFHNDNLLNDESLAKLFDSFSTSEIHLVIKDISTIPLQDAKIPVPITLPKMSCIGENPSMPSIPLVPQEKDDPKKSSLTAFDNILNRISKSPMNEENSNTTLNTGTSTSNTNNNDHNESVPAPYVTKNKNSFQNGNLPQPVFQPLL
Experiment: PBM E-score (8-mer binding enrichment) (E-score (-0.5 to 0.5)); higher = stronger / more preferred TF binding; most listed sequences are background and not binding sites
Conditions: protein concentration: 200 nM; construct: GST-full length
Outline: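 Yeast transcription factors carrying a GST tag, as full-length proteins or DNA-binding domains, were produced by PURExpress in vitro transcription/translation. About 100-200 nM protein was applied to universal all-10-mer Agilent arrays, double-stranded by primer extension on fresh or once-stripped slides. Bound protein was detected with fluorescent anti-GST, and scans were normalised with masliner. The Universal PBM Analysis Suite gave each ungapped eight-base word, pooled with its reverse complement, an E-score, a modified Wilcoxon-Mann-Whitney statistic.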

Sequence	PBM E-score
AGGCCACT	-0.0952
TCGCAGAA	-0.0951
AATAGTCT	-0.0519
ATGTCGGC	-0.0481
TACCAAGA	0.0906
CCCCAGCA	-0.0375
GCAGTTGA	0.175
AACTGCCC	-0.129
ACAGTTTC	0.0797
CCAAAACG	0.162
TACACCAA	0.0252
CCACAGGA	-0.0405
AAGAGCCC	-0.0902
AGTCCAAA	-0.0544
ACTTCAAT	-0.101
ATTGTTGC	0.0438
CTGGCGTC	-0.034
CACCCGAC	0.0689
ATTCCCTA	0.0361
AAGCGCCA	-0.138
CCTTTTCA	-0.153
ACGGAGTA	0.0079
AGACATTG	-0.0856
TACTGAAA	0.0591
GGCTAAGA	-0.0931

Sequence	PBM E-score
AGCGCCGG	-0.147
AACCAGTT	0.245
CGTACACC	-0.00295
GCCCCGAC	0.108
GGTTATGA	0.0904
AAGCTCCC	-0.125
CAGGCTCA	0.229
GGTGATCA	0.166
TATTATAA	-0.0377
AGATGTCA	0.0715
ACGTACAC	0.174
ACGCGCGT	-0.0127
AAAGGGCT	-0.223
AGCCTCGG	-0.00338
ATGTAGTG	0.114
GTTATAAA	-0.0862
CTCACAGA	0.0226
AGTTGCAG	-0.0695
GTTAGTAA	-0.0135
AAGACTTG	-0.127
AGTGGTGA	0.00626
AGCCATAG	0.0188
ACAAAACA	0.0375
CCGGACGC	0.105
CCTTTACC	-0.185

Sequence	PBM E-score
CGATTGCG	-0.0419
ACTTGATA	0.153
CTGCGCCC	-0.161
GAGCCATC	0.228
CCACGAAA	-0.153
CCCTCCCG	0.00845
CGACTCCG	0.391
TGGGCAAA	-0.044
AAATAATC	0.0264
ACGCGTTC	-0.0968
AAAGCGCA	-0.125
CTAAAATA	-0.0284
CTTCCCCC	-0.189
ATGCATAC	0.079
CATGCCAA	-0.0216
ATGAAAGA	-0.0635
AACTCCCG	-0.112
TTACTCAA	0.0752
ACTCGGCC	0.0882
GACCCGTA	0.088
CTGAGTGC	0.0204
CTACTAAA	-0.0489
CTTGGTTA	0.126
GCGGGCGA	0.255
AAGTTTTG	-0.0397

Sequence	PBM E-score
CGAAACGA	-0.0761
CAGTCGGA	0.0502
AGATCTAC	-0.0561
ATAGATGC	-0.0668
GTAAAGCA	-0.144
ATAAATAC	0.0462
CCGGGCCA	0.035
AATGCTAG	-0.0453
ATGTGGCA	0.0234
AGTTCGCC	-0.0347
CGGACGGC	-0.108
AAGCGATA	-0.00935
AAGTAATG	0.0713
GTCAATAA	-0.0972
TATGATGA	0.286
ACCTTATG	0.0528
CGCTACAA	-0.156
CGGAGATC	-0.0653
CAACTCTA	-0.152
GAATGTAC	-0.00977
CCCCATTA	-0.0673
ATTTACAC	0.0629
CCGGCCAG	-0.162
AGATCTTC	-0.07
GATAGAAC	-0.0917

Sequence	PBM E-score
ATTGCTGA	-0.0567
ATCCGGAC	-0.192
CTGTAATA	0.175
ATAAAAAT	-0.0282
CCCGGGGA	-0.0716
CTCGAGCC	0.069
AAGAACGC	-0.195
ATTGGTTG	0.159
ATACTAGC	0.183
GATGACTA	0.447
CAATGTAC	-0.134
GGATCAAC	-0.0769
GATTTCCC	-0.0496
CGGCTAAC	-0.0152
ATTAGGAA	-0.143
AACGTTAA	-0.16
AGCGGACT	-0.0924
CCGCCTAA	-0.119
GCTGCCGA	-0.0919
GTACTCTA	-0.0423
ACAACGCT	0.0591
AGTAGGTA	-0.0623
CTTTCGCC	-0.196
GAACACTC	0.088
GATCGAAA	-0.0319

Sequence	PBM E-score
GAAGATTC	0.0133
AAGAGTTC	-0.179
GAAAGTTC	-0.349
ATAAGGTA	-0.00465
TCCTTCGA	-0.111
AGCTTGGA	-0.231
ACAGGTCC	-0.195
AATATCAA	0.0811
CGGTAGAC	-0.00049
AATTGCGA	0.0284
AACGTCCT	-0.14
AGACAAGA	0.0549
TAACACAA	0.0935
AGGATCCA	0.0343
AAGCTCAT	-0.0433
CCTCACCC	0.0394
GCTCTCAC	-0.291
GCAAATCA	-0.0172
ATATCGTC	-0.0603
AACCTCTT	0.0249
AACGCTAC	-0.205
CCGAGAAC	-0.0935
ACGCTGCA	-0.103
AGGTCCGG	0.0135
ACAGAACG	-0.0406

Sequence	PBM E-score
AAGTCCGC	0.00158
CTCCGCTA	0.00749
GCTACCGA	0.0861
CGCCTGCC	0.00566
ACCTTGTA	-0.035
CACGAAAA	-0.0528
GATCCCTA	-0.0993
GTCGGTGA	0.0643
AGGCCTAA	-0.0116
AACTCCCA	0.0624
ACACCTTG	0.0416
CCCCTGTC	-0.0862
CCGTTTTC	0.0544
ATAATATG	0.206
CGCTATCA	0.0527
GGATCGAA	-0.0912
CAACCGTA	-0.281
AAATAGCG	-0.0694
GACGCACC	0.106
CAAAACTA	0.0554
AAGCTGCC	-0.0207
AATCCTCA	-0.00545
